The campaign covered roughly 46,000 compounds. About 60 (0.1%) were called active. About 3% were inconclusive and are not listed. Calls follow the shape of the dose curve; as a rule, active = well fitted inhibition curve with a large enough effect; inconclusive = small, poorly fitted or top-dose-only effect; inactive = no such curve, though single readings can be large or run the other way. Some of the results follow.

This assay in a line: Primary qHTS assay for Inhibitors of ovarian cancer metastasis using an organotypic tumor microenvironment (TME) model. Also: nearly all actives have a fitted effect of over 65% in size.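 As to activity change, negative = inhibition: plate controls were DMSO wells for no effect and tomatine positive control wells for full effect.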 The conditions noted are these: SKOV3ip1-GFP adhesion/invasion on 3D omental model, fluorescence; series mostly up to 45.8 µM; activity change, negative = inhibition: at the top concentration. In outline:
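A 3D layer of primary human omental fibroblasts, mesothelial cells, fibronectin and collagen I, grown 48 hr, received SKOV3ip1-GFP cells in serum-free medium plus compounds at 0.36-46 umol/L. After 2 hr RT and 16 hr 37 C, fixed adherent GFP cells were counted; normalized to DMSO and tomatine.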
(In qHTS, concentration-response curves come from the screen itself.)
On to `CCOCCCNC(=O)c1cc2c(=O)n(C)c3ccccc3c2n1C`, for which the compound was classed as inactive.

`Cc1ccc(NC(=O)c2cn3c4c(ccc(Cl)c4c2=O)OC(C)C3)cc1C` (stereo not drawn): the “activity change, negative = inhibition” value is inactive: -8.61%.

Turning to `CCOc1cc2sc(N3CCC(C(=O)Nc4ccccc4C(=O)OC)CC3)nc2cc1Br`, the “activity change, negative = inhibition” value is inactive: 5.68%.

As to `O=C(C1CCC(CNS(=O)(=O)c2ccc(Br)s2)CC1)N1CCN(c2ccccc2Cl)CC1` (stereo not drawn), the “activity change, negative = inhibition” value is inactive: 1.29%.

For `COc1ccc(NC(=O)Cn2c(=O)n(-c3cccc(C)c3)c(=O)c3c2c2cc(C)ccc2n3C)cc1Cl`, the “activity change, negative = inhibition” value is inactive: 0.326%.

For `CS(=O)(=O)N1CCc2cc(C(=O)Nc3ccc(Cl)c(C(F)(F)F)c3)ccc21`, the compound was called inactive.

On to `Cc1ncc(CO)c2c1Oc1nc(-c3ccccc3)nc(SCC(=O)N3CCCCC3)c1C2`, for which the “activity change, negative = inhibition” value is inactive: 6.67%.

Regarding `O=C(NCc1ccccc1)[C@H](Cc1ccccc1)NC(=O)[C@@H]1O[C@@H]1C(=O)NCCc1ccc(O)cc1`, the “activity change, negative = inhibition” value was inactive: -4.96%.

On to `CCN(CC)C(=O)Cn1c(=O)n(Cc2ccc(C(=O)NCc3ccc(C)cc3)cc2)c(=O)c2ccccc21`, for which the compound was classed as inactive.

On to `Cc1ccc(CNC(=O)C2CCN(S(=O)(=O)Cc3ccccc3)CC2)cc1`, for which the “activity change, negative = inhibition” value is inactive: 4.89%.

For the compound `CN(C)c1ccc(CNC(=O)C2CCCN(S(=O)(=O)c3ccc4c(ccn4C)c3)C2)cc1` (stereo not drawn), the “activity change, negative = inhibition” value was inactive: 8.31%.

For `CCOc1ccccc1NC(=O)Cn1c(=O)oc2cc(S(=O)(=O)NCc3ccccc3)ccc21`, the “activity change, negative = inhibition” value is inactive: -5.11%.

As for `Cc1nc(-c2ccc(OCC(C)C)c(C#N)c2)sc1C(=O)O`, the “activity change, negative = inhibition” value was inactive: -5.48%.

Turning to `COc1ccc(C)cc1NC(=O)CN1C(=O)COc2ccc(S(=O)(=O)N3CCOCC3)cc21`, the compound was classed as inactive.

For the compound `CCOC(=O)c1cccc(NC(=O)c2cc3cc4cc(OC)ccc4nc3s2)c1`, the “activity change, negative = inhibition” value is inactive: 17%.

Turning to `Cc1ccc(NC(=O)COc2ccc(-c3nn(C)c(=O)c4ccccc34)cc2)cc1`, the compound was classed as inactive.

Turning to `O=C(COCc1cc(-c2cccs2)on1)Nc1cc(Cl)ccc1O`, the call was inactive.

`CCOC(=O)c1sc(NC(=O)C(C)Oc2ccc(OC)cc2)c(C(=O)OCC)c1C` (stereo not drawn): the “activity change, negative = inhibition” value is inactive: 22.1%.

Regarding `COc1ccc(C(=O)Nc2cc(-c3ccccc3)nn2-c2ccccc2)cc1`, the “activity change, negative = inhibition” value was inactive: -0.356%.

On to `COc1ccc(C2N=C(N)Nc3nc4ccccc4n32)c(OC)c1OC` (stereo not drawn), for which the “activity change, negative = inhibition” value was inactive: 1.93%.

With `CC1=Nc2cc(C(=O)NCc3ccc(C)cc3)ccc2Sc2ccc(Cl)cc21`, the “activity change, negative = inhibition” value is inactive: -9.64%.

Consider `CCN1CCC(N(Cc2cccc(OC)c2)C(=O)Nc2cccc(C)c2C)CC1`, for which the “activity change, negative = inhibition” value is inactive: 5.21%.

Regarding `COC(=O)C1=C(C)NC(=O)C1(NC(=O)c1ccc(Cl)cc1)C(F)(F)F` (stereo not drawn), the “activity change, negative = inhibition” value is inactive: 0.898%.

On to `CC(=O)[C@H]1CC[C@H]2[C@@H]3CC=C4C[C@@H](O)CC[C@]4(C)[C@H]3CC[C@]12C`, for which the “activity change, negative = inhibition” value is inactive: 33.4%.

Regarding `CCc1ccc(NC(=O)N2CCN(Cc3nc4ccc(C)cc4o3)CC2)cc1`, the “activity change, negative = inhibition” value is inactive: 0.82%.

For `CCCCNC(=O)Nc1ccc2c(c1)N(C)C(=O)c1ccccc1S2`, the compound was classed as inactive.

In the case of `CCN(CC)C(=O)CN1C(=O)COc2ccc(S(=O)(=O)N3CCOCC3)cc21`, the compound was classed as inactive.

On to `O=C(CSc1nc2c([nH]c3ccccc32)c(=O)n1-c1ccc(Cl)cc1)NC1CCCCC1`, for which the “activity change, negative = inhibition” value was inactive: 6.81%.

Turning to `CC(=O)Nc1ccc(S(=O)(=O)NCC2CCC(C(=O)NCc3ccccc3)CC2)cc1` (stereo not drawn), the result was inactive.

With `CCOc1cc(C(Nc2cc(C)ccn2)c2ccc3cccnc3c2O)ccc1OC` (stereo not drawn), the call was inactive.

In the case of `Cc1ccc(N2CCN(C(=O)c3cn(C)c4ccc(S(=O)(=O)N5CCCC5)cc4c3=O)CC2C)cc1` (stereo not drawn), the “activity change, negative = inhibition” value is inactive: -0.46%.

On to `Cc1cc(Nc2cccc(Br)c2)n2c(nc3ccccc32)c1C#N`, for which the result was inactive.

Regarding `COc1ccccc1NC(=O)c1c(C)cc(C)nc1SCC(=O)Nc1ccc(C)cc1`, the “activity change, negative = inhibition” value is inactive: -23.9%.

In the case of `COc1ccc(NC(=O)Cn2nnc(C(=O)NCc3ccco3)c2N)c(OC)c1`, the result was inactive.

Consider `COc1ccc(CC2c3cc(OC)c(OC)cc3CC[N+]2(C)CCC(=O)OCCCCCOC(=O)CC[N+]2(C)CCc3cc(OC)c(OC)cc3C2Cc2ccc(OC)c(OC)c2)cc1OC` (stereo not drawn), for which the activity change, negative = inhibition was inactive: 13.2% [at 5.15 µM].

`Cc1ccc2c(c1)c(=O)c1ccccc1n2CCCC(=O)Nc1ccc(Cl)c(Cl)c1`: the “activity change, negative = inhibition” value was inactive: -0.693%.

As for `Cc1cc(C)cc(-n2c(SCC(=O)NCc3ccc(F)cc3)nc3c([nH]c4ccccc43)c2=O)c1`, the “activity change, negative = inhibition” value is inactive: -20.4%.

`COc1cc(NC(=O)CSc2nc(-c3ccccc3)no2)cc(OC)c1`: the “activity change, negative = inhibition” value was inactive: -2.22%.

For `CCOc1ccc(NC(=O)CN2C(=O)c3ccccc3Sc3ccc(C(=O)OC)cc32)cc1`, the compound was classed as inactive.

Regarding `O=C(C1CCC(Cn2c(=O)c3sccc3n(Cc3ccccc3F)c2=O)CC1)N1CCOCC1` (stereo not drawn), the “activity change, negative = inhibition” value is inactive: 0.731%.

Regarding `COc1cc(NC(=O)c2cc3c(=O)n(Cc4ccco4)ccc3nc2C)cc(OC)c1OC`, the “activity change, negative = inhibition” value was inactive: 1.19%.

`COC(=O)c1sc(-c2ccccc2)cc1NC(=O)c1cccc(Cl)c1`: the “activity change, negative = inhibition” value is inactive: -0.184%.

Consider `Cc1cccc(C)c1NC(=O)C(=O)NCC(c1cccnc1)N1CCc2ccccc21` (stereo not drawn), for which the compound was classed as inactive.

With `COc1cccc(NC(=O)CN2C(=O)CC(c3ccco3)Sc3ccccc32)c1` (stereo not drawn), the “activity change, negative = inhibition” value is inactive: 11.4%.

On to `O=C(Nc1nc(-c2ccccc2)ns1)c1ccc(Cl)cc1`, for which the “activity change, negative = inhibition” value is inactive: 23.8%.

In the case of `COc1ccccc1N1CCN(C(=O)c2ccc3c(c2)N(Cc2cc(C)ccc2C)C(=O)c2ccccc2S3(=O)=O)CC1`, the “activity change, negative = inhibition” value is inactive: 1.83%.

Regarding `COc1ccc(CN(C(=O)c2cc(=O)c3ccccc3o2)C2CCS(=O)(=O)C2)cc1OC` (stereo not drawn), the “activity change, negative = inhibition” value was inactive: -5.94%.

Consider `Cc1cccc(NC(=O)C(NS(=O)(=O)c2cccc3nsnc23)c2ccccc2)c1C` (stereo not drawn), for which the “activity change, negative = inhibition” value was inactive: 6.61%.

`CCN(CC)c1ccc(NC(=O)C2CCN(S(=O)(=O)c3ccc4c(c3)oc(=O)n4C)CC2)c(C)c1`: the compound was classed as inactive.

As for `CC(C(=O)O)c1ccc2c(c1)CC(=O)c1ccccc1S2` (stereo not drawn), the “activity change, negative = inhibition” value is inactive: -23%.

With `CCOC(=O)N1CCc2c(sc(NCc3cccs3)c2C(=O)Nc2cc(Cl)ccc2OC)C1`, the “activity change, negative = inhibition” value was inactive: 1.13%.

For `CCOC(=O)c1ccc(NS(=O)(=O)c2ccc3c(c2)CCN3C(=O)CC)cc1`, the “activity change, negative = inhibition” value is inactive: 7.51%.

For `Cc1ccc(C(=O)NCC(c2ccco2)S(=O)(=O)c2ccccc2)cc1C` (stereo not drawn), the “activity change, negative = inhibition” value is inactive: 16.3%.

As to `COc1cc2c(=O)c(S(=O)(=O)c3ccc(C(C)C)cc3)cn(Cc3ccccc3C)c2cc1OC`, the compound was classed as inactive.

As to `CCOC(=O)c1c(C)c(-c2ccccc2)n(CC(=O)NCc2ccccc2)c1C`, the “activity change, negative = inhibition” value was inactive: -25.3%.

For `CC(C)(C)OC(=O)N1CCC(c2c(C(=O)N3CCN(c4ccccn4)CC3)cnn2-c2cccc(F)c2)CC1`, the “activity change, negative = inhibition” value is inactive: 6.3%.

Turning to `Cc1ccc(NC(=O)Cn2c(=O)n(Cc3ccco3)c(=O)c3sc4ccccc4c32)c(C)c1`, the “activity change, negative = inhibition” value was inactive: -12.3%.

On to `COc1ccc(N2CCN(S(=O)(=O)c3cc(Br)cc4c3N(C(=O)C3CC3)CC4)CC2)cc1`, for which the compound was classed as inactive.

The values are drawn from PubChem BioAssay AID1963576 (National Center for Advancing Translational Sciences (NCATS), 2024).
